# The supplement of paper PMC11417369
# Some of the results follow.
# Tested on: PfAP2-HC AP2 domain (GST-tagged)
# Assay: gcPBM binding intensity (ln(normalized median fluorescence intensity)); higher = stronger DNA binding
# How it was run: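 Binding intensity is defined as the maximum Masliner-normalised natural-log median intensity across replicate spots for either probe orientation. It was measured on an Agilent 4 × 180k array of primer-extended double-stranded 36-bp intergenic genomic probes and negative controls, to which GST-tagged P. falciparum DNA-binding domains made in E. coli were applied for 1 h in 1× PBS with 1% milk, 0.2 mg/ml BSA, 0.5% salmon testes DNA and 0.03% Triton X-100. Detection was by Alexa488 anti-GST antibody and scanning at 488 nm.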
row,Sequence,gcPBM binding intensity (ln)
1,AGAGAGAGAAATACAAGTACATGTGAAACCAATCTA [XGTACX_site2767],9.86
2,AAAAAATAAAAAAAAACACACACATACAAGCATATA [CACACA_site8451],11.1
3,TTCAACATAATATGCACACAAAAATTATGGAACGAA [CACACA_site2111],9.99
4,AAAAAAAAAAAAATTGCACACAAAAAAAAAAAAAAA [CACACA_site8644],9.64
5,ATATAATAGTATATATGTACATATATTTAAATACTA [XGTACX_site1135],9.75
6,TATATTATAATTTGAAGTACATTTTAAATTAACTAA [XGTACX_site1013],9.29
7,ATATATGTATATATTTGTACATATAATATTTTTTAA [XGTACX_site6345],9.67
8,ATTTGTAATTTATTCAAACACACAATTTGGACCTTT [CACACA_site1062],9.68
9,TAATTAAGCATAAATATAATTTTATATTTTATTTCC [XGTACX_negctrl_site321],9.28
10,TAACATAGCAATGTTTCACACACAAGAAAAAATACA [CACACA_site8747],10.2
11,TGCAGTCTGGAGAAAAGTACATAGTATCTGGTAGCT [XGTACX_site2547],9.5
12,TTTGTGTGTGCGTGTGCATGTTGTTTTTTTCTATAA [TGCATGCA_site17],11.7
13,AATATAATAACTTATTGTACGAAATTATATCACCTT [XGTACX_site7883],9.64
14,TATTCACATACAGAAACACACACATATATATAAATT [CACACA_site9232],10.1
15,TTATAATATATATGTAGTACTGTTTTTTTCTATTTT [XGTACX_site7749],9.76
16,TGTACAAATATGTACACACACACATATATATATATA [CACACA_site584],10.3
17,TATTATTTTAAAAATGCATGTTCATATGAAATAATA [TGCATGCA_site969],9.53
18,TTCGTTCTTTTATGCACACTCAACATATAAATTAAA [CACACA_site1209],9.84
19,AAGGAGCCTATGAACACACACATGTACATATATTAA [CACACA_site4084],10.1
20,ATACTATTATATATATGTACATATATATGATGCTCT [XGTACX_site1771],9.78
21,AATATATATTTATGTACACACTCCAATACAGATACA [CACACA_site5481],9.91
22,TGTAAAAAATTTAACACACACATATATAAATATGTA [CACACA_site7261],10.2
23,CATATACATACACATACACACATACACCCATACACA [CACACA_site8514],10.2

row,Sequence,gcPBM binding intensity (ln)
1,ATATGACGTAGTGGTGTACACACATGGTACCTTTAT [CACACA_site8436],9.99
2,AGTAAATAATTATATACATGCATTTACTAATATTTA [TGCATGCA_site952],9.74
3,ATGTAGAATTGTAAATGTACATGAAACACATATTCA [XGTACX_site3436],9.8
4,CTCACATATATATATAGTACAATTTTTTTTTTTTTT [XGTACX_site5999],9.53
5,TTTTTATGTGTATATTATTACATTTACATCTTTAAC [CACACA_negctrl_site1676],9.77
6,ACAAGACAACAAGGAAGTACTCATAAATATATTTGG [XGTACX_site1423],9.8
7,TGTAAATATAAAAGATAATGATAAAAGGGACATTTT [CACACA_negctrl_site661],9.74
8,AATATATATATGTGTACACATCCAAAATAGGCATAC [CACACA_site5705],9.98
9,ATCTATATTATAATAACACACATATATTATAGTATA [CACACA_site6330],9.7
10,ATATATATATAAATATGTACATATTTATATATGAAT [XGTACX_site3220],9.64
11,AAGAAAAATACTACGTGTACCAAACTTCCTACCAAC [XGTACX_site1426],10.4
12,TATATATATATATTATGTACATATAAATATATTTTT [XGTACX_site1509],9.6
13,TTATTTATTCTATGTGCATGTTATTTTTTTTTTTCG [TGCATGCA_site262],9.73
14,AAAAATAAGATATATACACACATATAAATATAAATA [CACACA_site7396],10.1
15,TTTGTATTAAAAAAAAAAAAAAAAAAAATGAATAAA [TGCATGCA_negctrl_site292],9.16
16,ATAACGGAAAAAAAAAGTACATGATATAAACATGAA [XGTACX_site8428],9.69
17,TTTTTTTTTTTTTTTTTTTTTTTTCATTTGATATTA [TGCATGCA_negctrl_site112],8.67
18,CTTTAAACCCTGAACACACACAAATACACCCAAAAA [CACACA_site4297],10.6
19,TATATATATATATGTGGTACATAAAATTATTATTTT [XGTACX_site4554],9.9
20,ATAAAATTATCTACATGTACTCATATATATTTGTTT [XGTACX_site5911],10
21,AGAGAGAAAGTTATAACATGCAACAATTTTTAGAAG [TGCATGCA_site1],9.72
22,AAAGGAAAAGTTGACTGTACATAAGTAAAAAATAAT [XGTACX_site788],9.97
23,AAAAAAAAAAAAAACACACAGAAATATATATATATT [CACACA_site832],9.89

row,Sequence,gcPBM binding intensity (ln)
1,TTTATACAAATATGTACACACTAAATATATATTATG [CACACA_site4413],9.82
2,ATTCATTCCATACTTTAACACACAAATATATTTAAT [CACACA_site7930],9.83
3,TCATATTTATATAAATGTACTTAATTGGTTTCTTTA [XGTACX_site7848],9.55
4,ATGTTATTAATAATTGCACACATTTTTTTTTTTTTT [CACACA_site3920],9.93
5,AGATTGTAAGTAAACACACACACATATATATGTATA [CACACA_site675],10.4
6,TTTTTGTAACCGATTCTGCACTGAGAAGCACATATA,9.44
7,ATATTATACGCATATGTGCGCATACATTTTTTTGCA [GTGCAC_site9540],9.75
8,TTATTTACAAAACAAATCAAAATATCCAAAAGAATA [CACACA_negctrl_site1789],9.46
9,GAAATTACTTTATAAACACACATTTATTTTATTTTA [CACACA_site7007],9.63
10,GGCATATATATATGCACACATACATATATACATGTG [CACACA_site3859],10.1
11,TACACATACAGACATACACACATACCCATATACTCA [CACACA_site5037],10.4
12,TATATATGGATATATACACACAACGGTTATAAATAT [CACACA_site6655],10.1
13,AAAAAAATAAAATATATATATATATATATATATATA [GTGCAC_negctrl_site706],9.31
14,CTTAAAATATATTTAGTGCATATACTAATATATTAT,9.61
15,TATATATATATATTATGTACATATATAAATTAACAT [XGTACX_site3368],9.64
16,AATATAGGAATATGCACACATATATACATACATACA [CACACA_site1521],9.91
17,TTTTTTAAAGTTTAAAGTACATATAAAAATATATAA [XGTACX_site5267],9.28
18,TATGAAAAAAAAAAAAAAAAAAAAAAAAAAAAAAAA [XGTACX_negctrl_site587],8.64
19,ATATATATATATTTATGTACATATTATTTATTCTTT [XGTACX_site6567],9.99
20,ATTATTTGATTAAAGGTGCAAGGATAATAATAAAAC,9.79
21,TAATGGTATAAAAAATGTACATGTTTTTTTACAATT [XGTACX_site4285],9.65
22,TATTATATAATATACTGTACAATATCCATTATTTAC [XGTACX_site7091],9.71
23,TATATTTACTTATATGCACACATAAATGTGAATTAT [CACACA_site9258],9.79

row,Sequence,gcPBM binding intensity (ln)
1,ACATATAATAAAATAGTGCATTGTTAGTTTTATATA,9.64
2,AATTAATAAAAAAGGTGTACAGTAAATGCAATAATC [XGTACX_site7956],9.93
3,TCTTTTATATATAATAATTATATATAACATTCAAAC [GTGCAC_negctrl_site112],9.65
4,GTTAATCACCATGTGGTGCATATAAGGGCATATTAT [GTGCAC_site9748],9.59
5,ATAAATTCATACATTTGTACACAAAAAAAAAAAAAA [XGTACX_site2435],9.47
6,CCTTATACGATATTATGTACGCATATGTGCATTTTT [XGTACX_site1570],9.83
7,ATATATATATATATATGTACGTATAATATATATATG [XGTACX_site2212],9.75
8,ATTATTCAGGTAAAGTGTACAGGAGAAAAATAAAAT [XGTACX_site334],9.99
9,CGCACCCAAATATATACACACATATATATATATATA [CACACA_site1651],9.81
10,ATTGTAAGGAAACACACACACATATATATGTATATA [CACACA_site676],10.2
11,TATATGTTTAATTTCACACACAAATATGCATTTTAA [CACACA_site7881],9.83
12,AAATAAATACTAGGCACACACACATATATATATATA [CACACA_site2079],11
13,ATTATTGTAATATTAGCACACATTACCTCACTACAA [CACACA_site2560],10
14,AAATTTGCTTTACCAGTGCAAAAAAAAAAAAAAAAA,9.3
15,AAATCACATAAAAATAGTACTTTTTTTTTTTTTTTT [XGTACX_site2696],9.47
16,TGTTTTTATCCTTATGGTACAGTATAATACTTACAG [XGTACX_site6381],9.65
17,GGAAAATGAAAACAAGGTACACATAAGAACAAACAA [XGTACX_site1221],10.4
18,AATAGGGTCATTCAAAAAAAAAAAAAATAATAATAC [CACACA_negctrl_site644],9.37
19,AATATAAAAATGTTTACACACACACGGAAATATATT [CACACA_site7226],10.3
20,TAAAATTAATAAAATATTTTCACTTAATATATATAA [CACACA_negctrl_site1550],9.44
